The text below walks through data of article PMC5155157, “K63-polyubiquitinated HAUSP deubiquitinates HIF-1α and dictates H3K56 acetylation promoting hypoxia-induced tumour progression” (Nature Communications, 2016).

For the assay, the target named is T1, His-HIF1α1–400 (UniProt Q16665, in part).
T1 construct: HIF-1α, a.a; 1–400; also called N-terminal (a.a. 1–400) domain of HIF-1α
Kind of assay: pull-down; His-HIF1α protein incubated with GST-HAUSP protein and Glutathione-Agarose; pulled down His-HIF1α detected by Western blot. The settings on record: both partners purified. For orientation: A western blot detects proteins with antibodies after separation by electrophoresis.

B1: GST-HAUSP[…] (domain or fragment)
chain: MNHQQQQQQQKAGEQQLSEPEDMEMEAGDTDDPPRITQNPVINGNVALSDGHNTAEEDMED[about 150 residues not shown]
notes: HAUSP (USP7), a.a; source: purified GST protein
Turning to B1, the binding result is “binds”.
